This is one part of the list.

The labels stand for the following.
T1: UNK ZnF1-3 (human, UniProt Q9C0B0 31-174)
T1 sequence: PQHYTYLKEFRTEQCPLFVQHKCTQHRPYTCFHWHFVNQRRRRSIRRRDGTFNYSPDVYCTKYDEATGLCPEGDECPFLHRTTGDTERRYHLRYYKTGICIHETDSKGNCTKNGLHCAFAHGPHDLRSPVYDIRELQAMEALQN

B1: chr18:52893488:52893489:-_ENSG00000196628_ENST00000354452|hu_hu|hu_hu_hu_mus_True|18_18 (ssRNA)
RNA: GGGAGUUCUACAGUCCGACGAUCUAUUUAGACCAUUUCCGCGGAGUUAUGGCAUUUACUCAGUGCUGAUAGGUGGAAAAACUACUUCAACAGGGAUUUUUUUUUUCCUUAAUACAUGCCAAGAAUUUGUGGCUGUCAAAACAGCAACAGAGGAUUGAGCAUCA
B2: chr10:10886374:10886375:+_ENSMUSG00000090112_ENSMUST00000044053|mus_mus|FALSE|FALSE (ssRNA)
RNA: GGGAGUUCUACAGUCCGACGAUCAUGUGGGAUAUUGACAUAGUUUAGUUCUGAACGAAGAACAUCAUAGGUAAUGAUAACUAUAUCUUGUUCUGCCAAAAAAUGAGGCUGUAAGAAGCCGUGUUUCUUCACUCCUUGAUAUACCAACAGAGGAUUGAGCAUCA
B3: chr9:56909451:56909452:+_ENSMUSG00000032290_ENSMUST00000034832|mus_hu|FALSE|FALSE (ssRNA)
RNA: GGGAGUUCUACAGUCCGACGAUCCAUAAGUGCACACACACACACACACAGAAUGACAGAAAGGACUGGAAUACACGCCCUACUUAUAAACGUGCUUGGCACUCAGGACGAUCUCUAGAAUAUGUAACUUGGUCAAGCUCUCUGCAACAGAGGAUUGAGCAUCA
B4: chr11:118025658:118025659:-_ENSMUSG00000017132_ENSMUST00000017276|mus_mus|FALSE|FALSE (ssRNA)
RNA: GGGAGUUCUACAGUCCGACGAUCUUUGUAUUUUGACAAAUAUUUUUUAAACAAAUACAAAAUAAUCUAAAAGGAGAAAAACUAUGUGUGGAUUAUUUACACCUCUGAUAAAUAGACUGACACUGAGCCAGGUGCUGGCCUGCCCAACAGAGGAUUGAGCAUCA
B5: chr10:84155644:84155645:+_ENSMUSG00000034453_ENSMUST00000077175|mus_mus|FALSE|FALSE (ssRNA)
RNA: GGGAGUUCUACAGUCCGACGAUCGCUGUAGCUCAUCACGGCAACAGUUGCGUUCUGGCCAGCCGGCAACUUCUCAAAAUCUAUCAACUCGAUUGUUUUUGUUUUAACCAUGGGCUUUUGUGGAUAUGCUAGUAGAUACAUAAGCAACAGAGGAUUGAGCAUCA
B6: 71544554_71545539_3271_CDS_ENSMUSG00000053470_ENSMUST00000065509|mouse|control|control (ssRNA)
RNA: GGGAGUUCUACAGUCCGACGAUCCCAGUCCUUAAGUUUCAACACCAUUGGUUCUUUUUCUUUGUCGUUUUUCAAACGGUUUGGAACAUCUUCAAAUCCAUCCCAGAAGUCUCCGACUGUGGCUCCAGUGAUGAUUUCAUUGGUCAACAGAGGAUUGAGCAUCA
B7: 90667016_90667136_1652_3pUTR_ENSG00000113369_ENST00000265138|human|control|control (ssRNA)
RNA: GGGAGUUCUACAGUCCGACGAUCCUUCAAGCAUGUUGGAGCAGUCUCAGAAUGUUGCUGUAGGCUUCUAAAGCAUGAUCACUGGUUGUUUCAUGUAUUCGCCAUUUUUCUGGGCAAAAGUAAUUCCACUUCCUCUGAAACGUGCAACAGAGGAUUGAGCAUCA
B8: chr3:94910677:94910678:-_ENSMUSG00000028126_ENSMUST00000107236|mus_hu|FALSE|FALSE (ssRNA)
RNA: GGGAGUUCUACAGUCCGACGAUCAGCUUAAGCUGGCUGCUGGGACCUUGCGCCCAGACCAAGCCACAUCUGAAAAAAAAACGAGGCAUGAAAAGUCCCAAAGGAGCGAACGCCCCUUCUCCGUCCUUCCUAACCACGGCCUGUCAACAGAGGAUUGAGCAUCA
B9: chr9:113799110:113799111:+_ENSMUSG00000033392_ENSMUST00000111838|mus_mus|FALSE|FALSE (ssRNA)
RNA: GGGAGUUCUACAGUCCGACGAUCCAGCAGAACAAACAACCAAUCUUGAAGAUCAUCUUUGUGGACUUGUAUGAAAUCUACUAGAGUCUCCAAGAACAUGCUGAACACCUUGCCAUGAGGAUCUGCAAACAUUCUUGUGAAAAUCAACAGAGGAUUGAGCAUCA
B10: 3297105_3297225_820_CDS_ENSMUSG00000068566_ENSMUST00000164553|mouse|control|control (ssRNA)
RNA: GGGAGUUCUACAGUCCGACGAUCUGGCACGGUAGCCAUAUAGCCAGUGAUCUCACCGGGCCUUGCACGGGUCCAGGCCACUUCAGUGGCAUACGCCAAACAGGCAACGCAGGAGAAAGUGGUGGCAGCGAUGGCAUGGUCCCGCAACAGAGGAUUGAGCAUCA
B11: chr2:5814250:5814251:-_ENSMUSG00000025816_ENSMUST00000102981|mus_hu|mus_mus_mus_hu_True|1_108 (ssRNA)
RNA: GGGAGUUCUACAGUCCGACGAUCUUCCUUUCAGGCUUCUGAAUUUCUGGUAGAACUGCACAGAAUGGUUUGAUAACUUCUAAAAAUUUGAUGCCCAUGGCUGCUGCUGGGGAGGCCCAGGGGGAAACCGCGGCCUCGCAGCUGCAACAGAGGAUUGAGCAUCA
B12: 87340226_87340346_1349_CDS_ENSMUSG00000003382_ENSMUST00000170036|mouse|control|control (ssRNA)
RNA: GGGAGUUCUACAGUCCGACGAUCGGGAGUGCUAAUGGACACAGAGGGCCAGGUGGGUGAGGGGUGGGCAAACCCGGUGCCUUUCCCCUCUUCUAUGGUCCUGCUCCGCAUGCUGUCCACUUCUUGGGUCUGUUCCUCCUUUCCCAACAGAGGAUUGAGCAUCA
B13: chr3:9412954:9412955:+_ENSG00000134077_ENST00000452837|hu_mus|hu_hu_hu_mus_False|48_48 (ssRNA)
RNA: GGGAGUUCUACAGUCCGACGAUCGGUUGAUAUCUCUUCUUUGAUGGCUGGAUUUUCAUAAUAGUCCAAGAUAUGUGAAUCUGAAGUAUGGCUAGUGUGCUUUUUCUUACCAUCUUUCUCAUCUGCUUUGUCUCCUUGUCCACACAACAGAGGAUUGAGCAUCA
B14: chr8:89189611:89189612:+_ENSMUSG00000047866_ENSMUST00000034141|mus_hu|FALSE|FALSE (ssRNA)
RNA: GGGAGUUCUACAGUCCGACGAUCAAAAAGAACUUGAGAAAGGUCAAAGGCCACAUUUAGAUAAUGAUCUGUGAAGUUAUGGUUUUGUUCAGGAUCCAACACCUCAAGCAGAGCUGCUGCUGGAUCACCCUGUAGACUUUUUCCCAACAGAGGAUUGAGCAUCA
B15: 123898113_123898233_537_CDS_ENSG00000119397_ENST00000373850|human|control|control (ssRNA)
RNA: GGGAGUUCUACAGUCCGACGAUCCUCUUCCUUGAGCUGGUUGGCUUCAGCAUCCCUUAGGUUUAGCCGAGCCUCUAGCUCAGCUUCAUAGGCACUGAGAUCUCCCUGGGUCUGCUGCAAAGAUGCAUUCACCUCAUGCUGCUCCAACAGAGGAUUGAGCAUCA
B16: chr3:176740097:176740098:-_ENSG00000177565_ENST00000430069|hu_mus|hu_hu_hu_mus_True|38_68 (ssRNA)
RNA: GGGAGUUCUACAGUCCGACGAUCUGUUUUGUAUACCACAAAAGGAGGCACUUUCAGUAUCUGCAAAAGGUAUUUAAUCCUAAAACAUACUCACCUAGAGAAUAAUUCAGGAAAACAAUCUGUUACACUCUAAGACCUACUCCACAACAGAGGAUUGAGCAUCA
B17: 35209774_35209894_253_3pUTR_ENSMUSG00000031513_ENSMUST00000033910|mouse|control|control (ssRNA)
RNA: GGGAGUUCUACAGUCCGACGAUCCUCCACGACCCGGGCGGUGGCCGGGAGACCCGAGACGCGCGGCGGCGGCGGCGGCCAGACAACACCCGGAAGUGCACCCCGCUGCACUUCCGCCGGCGGCUCGCGCGGGGGCGUGGGGGCCAACAGAGGAUUGAGCAUCA
B18: chr1:110565788:110565789:+_ENSG00000168710_ENST00000369799|hu_mus|motif|central (ssRNA)
RNA: GGGAGUUCUACAGUCCGACGAUCAUUCUGUCUUUAAUGCCUGUUUCUCUGAUCAGUGGAAAGAGAGAAGUAAACAUUUCGGGUACCGGUCAUUAACACAUAACCCAUCUUUGAAGGAUCACAAGCUAGAACACGUUGAGGACUCAACAGAGGAUUGAGCAUCA
B19: 34871378_34871498_3662_3pUTR_ENSMUSG00000037503_ENSMUST00000047534|mouse|control|control (ssRNA)
RNA: GGGAGUUCUACAGUCCGACGAUCUGCCUGUAGCCUAACUGACCCAAUCCUGAUGGUGGUGGGUUUGCUUCUCCAGAGUCAAGGAGCUUACAGUUUCCAAUACUCCACAACUCUAAACUGCAAGCAGCAGCAGCCGAGGAAGGACAACAGAGGAUUGAGCAUCA
B20: chr1:66485854:66485855:+_ENSMUSG00000015222_ENSMUST00000077355|mus_hu|FALSE|FALSE (ssRNA)
RNA: GGGAGUUCUACAGUCCGACGAUCGCCUUCAGAAUGUAGUGGAUAGCCUUCAGGCACAUGAAAGGUAAAAAUGCAAUUUUUAAAAUAAUAAUACUCCAUGCAAAACAGAGCAGAGCAAAAAUAAUUGUCCAAUUGAACCCAUGUCAACAGAGGAUUGAGCAUCA
B21: chr5:135101456:135101457:-_ENSMUSG00000040731_ENSMUST00000036125|mus_mus|FALSE|FALSE (ssRNA)
RNA: GGGAGUUCUACAGUCCGACGAUCACCCAAGAGUGCACCGUCAUAAGUCAGAGCCUCCUUCAGGGAAUCCACCUCAUCAAAUUCUACAUAGCAGAACCCUUUAAAUUUGUCUGUGUCUUUGUCUCUGACUAGCCGCACACUCCGCAACAGAGGAUUGAGCAUCA

This experiment deals with T1, UNK ZnF1-3. The experiment in a line: nsRBNS (natural sequence RNA bind-n-seq); RBNS binding buffer (assumed for nsRBNS): 25 mM Tris pH 7.5, 150 mM KCl, 3 mM MgCl2, 0.01% Triton X-100, 500 ug/ml BSA, 20 U/ml SUPERase-In, 4 C; UNK is unkempt and MSI1 is Musashi-1; names of the RNAs are library labels; protein concentration not given here; high values mean tight binding.
Regarding B1, the binding signal was determined as 1.11 enrichment R.
Take B2: the binding signal was found to be 0.738 enrichment R.
In turn, B3 displayed a binding signal of 1.32 enrichment R.
B4 came in with a binding signal of 1.39 enrichment R.
B5: the binding signal was 0.902 enrichment R.
In turn, B6 showed a binding signal of 0.364 enrichment R.
For B7, the binding signal came to 0.604 enrichment R.
Regarding B8, the binding signal came out at 1.15 enrichment R.
As to B9, the binding signal was determined as 1.21 enrichment R.
Molecule B10 had a binding signal of 0.658 enrichment R.
On to B11, for which the binding signal came out at 0.995 enrichment R.
For B12, the binding signal amounted to 0.504 enrichment R.
Then B13, with 0.395 enrichment R.
Take B14: the binding signal worked out at 0.891 enrichment R.
B15 had a binding signal of 0.512 enrichment R.
Molecule B16 displayed a binding signal of 0.747 enrichment R.
In turn, B17 came in with a binding signal of 0.607 enrichment R.
Next, B18: 1.03 enrichment R; B19: 0.799 enrichment R; B20: 2.78 enrichment R.
Then B21, with 0.444 enrichment R.

These data come from publication PMC12136788.
